According to the supplement of paper PMC3724861:
The other results are listed elsewhere or left out.

System: T1, Caupolican (Caup) homeodomain DNA-binding domain
T1 sequence: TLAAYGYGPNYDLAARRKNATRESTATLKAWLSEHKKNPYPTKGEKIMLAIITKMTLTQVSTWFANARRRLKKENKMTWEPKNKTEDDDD
Assay: PBM E-score (8-mer, recovered from the published 9-mer minima) (E-score (dimensionless, -0.5 to 0.5)); Drosophila protein; higher = stronger relative binding preference, active = 0.31 or more
Method in brief: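 An enrichment score, with higher meaning stronger, expresses relative binding preference for each short DNA word. The protein used was Caup's homeodomain DNA-binding domain (residues 214-303), produced by in vitro transcription and translation and tested at 100 nM on custom-designed protein binding microarrays. The 8-mer values were recovered from published 9-mer scores, each equal to the lower of its two constituent 8-mer scores.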

Sequence	PBM E-score
ATCCCCAA	≥ 0.0283
ATAGAAAT	inactive: 0.114
CGACTATC	inactive: -0.0393
CATACTTA	inactive: 0.153
GGCTCTCA	inactive: -0.209
CCCTCCGA	inactive: -0.235
AATCTGAC	inactive: 0.138
AGTGATTA	inactive: 0.1
TAATGAGA	inactive: 0.0965
CCTGGTCC	inactive: -0.159
TAGGGCGA	inactive: -0.0721
CAAGTCTA	inactive: 0.0856
CGCGCAGC	inactive: -0.165
CTCTGATA	inactive: 0.0146
CCTATTCG	inactive: -0.113
TAGCCCTA	inactive: -0.0874
AAGATCAG	inactive: -0.0552
ACTCTAGC	inactive: -0.174
CTTTTCTC	inactive: -0.0505
CTGTGTCC	inactive: 0.172
ACCGTCTA	inactive: -0.108
AACACGCT	inactive: 0.267
AATCATAC	inactive: 0.157
GAGCACGC	inactive: -0.14

Sequence	PBM E-score
AAAGTCGA	inactive: -0.0806
ACCGGGTA	inactive: -0.0429
CAGCATGA	inactive: 0.117
AAATATCT	inactive: 0.14
AAGACACA	inactive: 0.196
GTCCCGAA	inactive: -0.047
CGTCCAAC	inactive: 0.0437
ACCGCGTG	inactive: -0.111
CTAGGCTC	inactive: -0.209
ATATCAAC	inactive: 0.111
ATATATAT	≥ 0.28
GCTCACAA	inactive: 0.0103
TCCAGGCA	≥ -0.043
AGAACGAG	inactive: 0.108
CCATCATC	inactive: 0.0538
AACGCTAG	inactive: -0.1
ACGTCTCT	inactive: -0.116
CGATGTCA	active: 0.311
CCCCCGCC	inactive: -0.378
GACACAGC	inactive: 0.157
AGAGTTAT	inactive: 0.0566
GACGAGTA	inactive: 0.08
CTTTTAGA	inactive: -0.0649
CCAAGTAA	inactive: 0.0669

Sequence	PBM E-score
GTGCCCAC	inactive: -0.155
AACACCCC	inactive: 0.0993
GCTTTGCA	inactive: -0.133
CTGGCGCA	inactive: -0.206
CTTACGGC	inactive: -0.188
AACCTTTA	inactive: 0.0158
CCGTCCTC	inactive: -0.166
AAACCGGA	inactive: 0.0214
TAGGAGGA	inactive: -0.0127
CCCTGGCA	inactive: -0.203
ACCTCAAA	inactive: -0.032
GGAACTAC	inactive: 0.0255
CGGGAAGC	inactive: -0.102
GAAAAACA	inactive: 0.217
CACCCGCC	inactive: -0.0866
CAGTGTAG	inactive: 0.171
ATAACCTC	inactive: 0.0841
ATAGTATG	inactive: 0.157
AGGGTGGA	inactive: -0.164
ACTTACGA	≥ 0.104
GGGAGCAA	inactive: -0.103
GCCACGGC	inactive: -0.241
AGTCGTAA	inactive: 0.0717
GCTCCAGC	inactive: -0.186

Sequence	PBM E-score
CATACAGC	inactive: 0.0231
CCCAAGCA	inactive: -0.0938
GAAGCTCC	inactive: -0.207
GACGCTTA	inactive: -0.058
ACACTAGG	inactive: 0.0687
CTCCATAC	inactive: -0.0486
GGGTACAC	inactive: 0.14
AAAACCAC	inactive: 0.0457
GCGCGTGA	inactive: -0.13
CTCTTGTA	inactive: 0.299
CCTCTCTA	inactive: -0.218
GGCACGGA	inactive: -0.0745
GTCGCAAC	inactive: 0.0137
CTAACATA	inactive: 0.28
AAAGATTC	≥ 0.0886
AAGGTGAC	inactive: 0.0671
GGATAATA	inactive: 0.042
GGTGGAAA	inactive: -0.0874
GTGCCTCA	inactive: -0.266
GTCCTTTA	inactive: 0.0147
CGCGCCAG	inactive: -0.304
ACCTCGTC	inactive: 0.0147
GGCGGGAC	inactive: -0.206
AGGACCAC	inactive: -0.0375

Sequence	PBM E-score
GATTCCAC	inactive: 0.045
ACGTAGAT	inactive: 0.102
GGCTTCGA	inactive: -0.14
CACAAAGA	inactive: 0.0433
AAGGACAC	inactive: 0.147
ACTGTCGC	inactive: -0.026
GGTAAAAA	inactive: 0.0552
TATCCAAA	inactive: 0.133
TCTGATAA	inactive: 0.134
GCTAAAGA	inactive: 0.0318
CTCTGTTC	inactive: 0.119
CTAGAAAA	inactive: 0.0157
CGATGGGC	inactive: -0.165
ATGAGCTC	inactive: -0.0796
CAATACTC	inactive: 0.142
CACGCGGC	inactive: -0.117
CCGTTGTC	inactive: 0.183
GGGCTCGA	inactive: -0.143
AAAATTGG	inactive: -0.0443
ACGGCTAT	≥ 0.00537
CACGGCGC	inactive: -0.084
AACACAGA	inactive: 0.248
CTGGTTGC	inactive: -0.00962
CAGTAGAC	inactive: 0.0172

Sequence	PBM E-score
GAATTAAC	inactive: 0.12
GGTGGTTA	inactive: 0.0166
CCCCCGAA	inactive: -0.174
AAAGGAAT	inactive: 0.0889
AGCTGGCC	inactive: -0.176
GCGATTTA	inactive: -0.0705
GATAGGGC	inactive: -0.174
GAATCTAA	inactive: 0.00078
CATCCTAC	inactive: 0.0299
AGCCACTG	inactive: -0.117
GGTTGCAC	inactive: 0.0564
GAGCCTCA	inactive: -0.214
CTAAGGAG	inactive: -0.251
CCCGTATC	inactive: -0.0196
TAGTCACA	≥ 0.182
GCCGGAAA	inactive: -0.0982
TGCAGCCA	inactive: -0.0784
CTAGTGAC	inactive: 0.0755
AGCCTTCA	inactive: -0.119
CGCAGTAG	inactive: -0.118
CATGAGCC	inactive: -0.00819
ATTGGGGA	inactive: -0.0647
AATCACTA	inactive: 0.0509
AGGACGAA	inactive: -0.0156
